From publication PMC6760808
These are yes or no findings as the source states them, for the method shown. Some binding calls cover weakened binding; strength is not graded here. Sequences can lack the tags named with a protein.

How the values were obtained:
NPHP5-mCh-mito (mouse) = target: T1, NPHP5-mCh-mito (mouse) (UniProt Q8BP00); assay: knocksideways (recruitment to the mitochondrial surface, fluorescence microscopy); NPHP-mCh-mito bait on the mitochondrial surface co-expressed with EGFP-tagged nucleoporin in COS-7 cells; fixed 24 hours post-transfection
T1 sequence: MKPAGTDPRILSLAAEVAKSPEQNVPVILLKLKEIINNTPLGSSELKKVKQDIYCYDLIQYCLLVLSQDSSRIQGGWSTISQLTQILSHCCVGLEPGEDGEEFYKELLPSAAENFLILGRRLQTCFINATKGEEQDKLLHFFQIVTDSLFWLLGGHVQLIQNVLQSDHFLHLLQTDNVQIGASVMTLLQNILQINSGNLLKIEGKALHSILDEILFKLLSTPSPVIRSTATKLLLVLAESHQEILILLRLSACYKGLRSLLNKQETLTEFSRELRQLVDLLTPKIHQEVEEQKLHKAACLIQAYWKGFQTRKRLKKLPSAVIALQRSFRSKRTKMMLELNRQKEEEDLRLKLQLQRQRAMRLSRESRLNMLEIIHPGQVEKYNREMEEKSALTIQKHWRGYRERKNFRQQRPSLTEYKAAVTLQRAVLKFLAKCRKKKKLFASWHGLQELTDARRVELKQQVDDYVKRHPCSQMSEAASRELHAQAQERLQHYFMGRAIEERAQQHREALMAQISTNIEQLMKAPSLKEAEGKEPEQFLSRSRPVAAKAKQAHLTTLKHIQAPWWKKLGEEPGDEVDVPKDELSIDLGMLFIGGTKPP

NPHP1-mCh-mito = target: T2, NPHP1-mCh-mito (UniProt O15259); assay: as above
T2 sequence: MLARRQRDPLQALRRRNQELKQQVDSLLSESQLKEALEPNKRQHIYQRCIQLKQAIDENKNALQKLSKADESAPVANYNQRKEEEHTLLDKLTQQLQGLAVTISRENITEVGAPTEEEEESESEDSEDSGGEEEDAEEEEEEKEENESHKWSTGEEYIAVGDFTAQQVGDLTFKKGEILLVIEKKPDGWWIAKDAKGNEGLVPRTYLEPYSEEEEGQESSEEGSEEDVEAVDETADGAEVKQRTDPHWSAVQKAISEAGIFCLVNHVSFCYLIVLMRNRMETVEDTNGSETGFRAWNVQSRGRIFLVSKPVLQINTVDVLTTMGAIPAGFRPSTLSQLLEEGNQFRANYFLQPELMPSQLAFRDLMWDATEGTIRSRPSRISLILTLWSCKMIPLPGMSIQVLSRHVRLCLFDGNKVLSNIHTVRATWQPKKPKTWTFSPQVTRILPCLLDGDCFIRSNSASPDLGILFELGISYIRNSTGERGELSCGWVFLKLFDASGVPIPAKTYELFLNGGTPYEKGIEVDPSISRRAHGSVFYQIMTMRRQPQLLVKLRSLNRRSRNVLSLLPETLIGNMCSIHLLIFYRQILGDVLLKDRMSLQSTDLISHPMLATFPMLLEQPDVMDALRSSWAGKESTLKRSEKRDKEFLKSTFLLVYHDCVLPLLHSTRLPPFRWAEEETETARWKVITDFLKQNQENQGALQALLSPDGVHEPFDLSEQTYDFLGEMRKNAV

B1: Nup155-EGFP3 (protein, UniProt O75694 1-1391)
chain: MPSSLLGAAMPASTSAAALQEALENAGRLIDRQLQEDRMYPDLSELLMVSAPNNPTVSGMSDMDYPLQGPGLLSVPNLPEISSIRRVPLPPELVEQFGHMQCNCMMGVFPPISRAWLTIDSDIFMWNYEDGGDLAYFDGLSETILAVGLVKPKAGIFQPHVRHLLVLATPVDIVILGLSYANLQTGSGVLNDSLSGGMQLLPDPLYSLPTDNTYLLTITSTDNGRIFLAGKDGCLYEVAYQAEAGWFSQRCRKINHSKSSLSFLVPSLLQFTFSEDDPILQIAIDNSRNILYTRSEKGVIQVYDLGQDGQGMSRVASVSQNAIVSAAGNIARTIDRSVFKPIVQIAVIENSESLDCQLLAVTHAGVRLYFSTCPFRQPLARPNTLTLVHVRLPPGFSASSTVEKPSKVHRALYSKGILLMAASENEDNDILWCVNHDTFPFQKPMMETQMTAGVDGHSWALSAIDELKVDKIITPLNKDHIPITDSPVVVQQHMLPPKKFVLLSAQGSLMFHKLRPVDQLRHLLVSNVGGDGEEIERFFKLHQEDQACATCLILACSTAACDREVSAWATRAFFRYGGEAQMRFPTTLPPPSNVGPILGSPVYSSSPVPSGSPYPNPSFLGTPSHGIQPPAMSTPVCALGNPATQATNMSCVTGPEIVYSGKHNGICIYFSRIMGNIWDASLVVERIFKSGNREITAIESSVPCQLLESVLQELKGLQEFLDRNSQFAGGPLGNPNTTAKVQQRLIGFMRPENGNPQQMQQELQRKFHEAQLSEKISLQAIQQLVRKSYQALALWKLLCEHQFTIIVAELQKELQEQLKITTFKDLVIRDKELTGALIASLINCYIRDNAAVDGISLHLQDICPLLYSTDDAICSKANELLQRSRQVQNKTEKERMLRESLKEYQKISNQVDLSNVCAQYRQVRFYEGVVELSLTAAEKKDPQGLGLHFYKHGEPEEDIVGLQAFQERLNSYKCITDTLQELVNQSKAAPQSPSVPKKPGPPVLSSDPNMLSNEEAGHHFEQMLKLSQRSKDELFSIALYNWLIQVDLADKLLQVASPFLEPHLVRMAKVDQNRVRYMDLLWRYYEKNRSFSNAARVLSRLADMHSTEISLQQRLEYIARAILSAKSSTAISSIAADGEFLHELEEKMEVARIQLQIQETLQRQYSHHSSVQDAVSQLDSELMDITKLYGEFADPFKLAECKLAIIHCAGYSDPILVQTLWQDIIEKELSDSVTLSSSDRMHALSLKIVLLGKIYAGTPRFFPLDFIVQFLEQQVCTLNWDVGFVIQTMNEIGVPLPRLLEVYDQLFKSRDPFWNRMKKPLHLLDCIHVLLIRYVENPSQVLNCERRRFTNLCLDAVCGYLVELQSMSSSVAVQAITGNFKSLQAKLERLH
NPHP5-mCh-mito (mouse)
  binding: binds
NPHP1-mCh-mito
  binding: no binding
